{
  "source": "PubChem BioAssay AID624296",
  "about": "(National Center for Advancing Translational Sciences (NCATS), 2012)",
  "note": "Several values for one entry are separate records, joined by “and”; a condition that tells them apart may be missing. Identical values can stand only once. Among all 350,000 compounds or so, about 9,900 (2.8%) were called active. The inconclusive results got no clear call from the source; some entries with a clear call stand among them for comparison. Calls come from the whole dose curve; as a rule, active = well fitted activation curve with a large enough effect; inconclusive = small, poorly fitted or top-dose-only effect; inactive = no such curve, though single readings can be large or run the other way. A potency beside an inconclusive call is a rough fit, not a confirmed value. Potency is the fitted concentration of half-maximal effect; tags give direction and shape of the fitted curve.",
  "data": [
    {"assay": "A quantitative high throughput screen for small molecules that induce DNA re-replication in MCF 10a normal breast cells; note: nearly all actives have a fitted effect of over 50% in size.", "settings": "MCF 10A DNA re-replication, Hoechst nuclear intensity, 48 h; series mostly up to 46.1 µM", "values": [
      {"smiles": "COc1cc2ccccc2cc1C(=O)N(CCN(C)C)c1nc2ccc(Br)cc2s1", "Potency": "inconclusive: 23.1 µM [activator, single point]"},
      {"smiles": "Cc1nc2c(ccc3nc(NC(=O)Cc4ccccc4)sc32)s1", "Potency": "inconclusive: 25.9 µM [activator, single point]"},
      {"smiles": "COc1cc(-c2nnc(CSc3nnc(Nc4ccc(C(C)C)cc4)s3)o2)cc(OC)c1OC", "Potency": "active: 14.6 µM"},
      {"smiles": "S=C(NN=C1CCCCCC1)Nc1ccc(Cl)cc1", "Potency": "inconclusive: 0.58 µM [activator, full curve]"},
      {"smiles": "CCOC(=O)c1c(NC(=O)CSc2nnnn2-c2ccccc2)sc2c1CC(C)(C)NC2(C)C", "Potency": "inconclusive: 20.6 µM [activator, partial curve]"},
      {"smiles": "Cc1ccc2nc(NC(=O)c3ccccn3)sc2c1", "Potency": "inconclusive: 18.4 µM [activator, single point]"},
      {"smiles": "COc1ccc(CCNc2oc(-c3ccc(OC)c(OC)c3)nc2C#N)cc1", "Potency": "inconclusive: 25.9 µM [activator, partial curve, poor fit]"},
      {"smiles": "Cc1nc2c(-c3ccc(F)cc3)c(C)nn2c(C)c1CCC(=O)Nc1ccccc1", "Potency": "inconclusive: 25.9 µM [activator, single point]"},
      {"smiles": "Cc1noc(C)c1S(=O)(=O)Nc1ccc(C(C)C)cc1", "Potency": "active: 23.1 µM"},
      {"smiles": "CCC(C(=O)NC(N)=O)c1ccccc1", "note": "(stereo not given)", "Potency": "inactive"},
      {"smiles": "CCN(c1ccccc1)S(=O)(=O)c1ccc(Cl)c(C(=O)NC2CCN(Cc3ccccc3)CC2)c1", "Potency": "inconclusive: 4.11 µM [activator, single point]"},
      {"smiles": "c1ccc2c(c1)CC(N1CCCCC1)c1ccccc1S2", "note": "(stereo not given)", "Potency": "inactive"},
      {"smiles": "Cc1ccc(C(=O)/C=C/C(=O)O)cc1", "Potency": "inconclusive: 23.1 µM [activator, single point]"},
      {"smiles": "CC(=O)Nc1c(F)cc(Br)cc1F", "Potency": "inconclusive: 29.1 µM [activator, single point]"},
      {"smiles": "Cc1ccc(S(=O)(=O)N2CCN(C(=O)COC(=O)COc3ccc(Cl)c(C)c3)CC2)c(C)c1", "Potency": "inconclusive: 0.731 µM [activator, partial curve, poor fit]"},
      {"smiles": "CC(=O)N1N=C(c2ccc(NS(=O)(=O)c3ccccc3)cc2)CC1c1ccco1", "note": "(stereo not given)", "Potency": "inconclusive: 5.17 µM [activator, full curve]"},
      {"smiles": "Cc1c(C)n(Cc2ccccc2)c2ccc(C(=O)OCCN(C)C)cc12", "Potency": "inconclusive: 5.17 µM [activator, partial curve, poor fit] and inconclusive: 13.3 µM [activator, full curve, poor fit]"},
      {"smiles": "Cc1ccc(NC(=O)C2CCN(S(=O)(=O)c3c(C)noc3/C=C/N(C)C)CC2)cc1", "Potency": "inconclusive: 23.1 µM [activator, single point]"},
      {"smiles": "CC(C)OC(=O)Cn1c(-c2ccccc2)c(-c2ccccc2)nnc1=O", "Potency": "inactive"},
      {"smiles": "O=C(CSc1nncc2ccccc12)Nc1ccccc1", "Potency": "inactive"},
      {"smiles": "CCOC(=O)/C(=N/Nc1ccc(Cl)cc1)Sc1nnnn1-c1ccc(C)cc1", "Potency": "inactive"},
      {"smiles": "COc1ccc(CCNC(=O)c2cc3c(=O)n4ccccc4nc3n(C3CCCCC3)c2=N)cc1OC", "Potency": "inactive"},
      {"smiles": "CCC1CCCCN1c1nc(-c2cccc(OC)c2O)nc2ccccc12", "note": "(stereo not given)", "Potency": "inconclusive: 29.1 µM [activator, single point]"},
      {"smiles": "O=C(Nc1ccc(Cl)c(Cl)c1)Nc1ccc(N2CCCC2)c(S(=O)(=O)Nc2ccccc2Cl)c1", "Potency": "inconclusive: 29.1 µM [activator, single point]"},
      {"smiles": "Cc1cccc(OCC(=O)N/N=C/C=C/c2ccco2)c1", "Potency": "inconclusive: 29.1 µM [activator, single point]"},
      {"smiles": "COc1ccc(Cn2c(=O)c3[nH]cnc3n(-c3ccccc3C)c2=O)cc1", "Potency": "active: 16.4 µM"},
      {"smiles": "COc1ccc(CNCC(O)COc2ccc(C(C)(C)c3ccccc3)cc2)cc1", "note": "(stereo not given)", "Potency": "inconclusive: 29.1 µM [activator, single point]"},
      {"smiles": "CCOC(=O)Cn1c(C(F)(F)F)nc2nc(Cl)c(Cl)nc21", "Potency": "inconclusive: 18.4 µM [activator, single point]"},
      {"smiles": "O=C1N/C(=N\\N=C\\c2cccs2)SC1Cc1ccc(Cl)cc1", "note": "(stereo not given)", "Potency": "inconclusive: 25.9 µM [activator, single point]"},
      {"smiles": "COC(=O)c1ccc2nc(Nc3nc4c(F)cc(F)cc4s3)sc2c1", "Potency": "active: 2.31 µM"},
      {"smiles": "CCN(CC(=O)N1CCN(Cc2ccccc2)CC1)S(=O)(=O)c1ccc(F)cc1", "Potency": "inactive"},
      {"smiles": "COCc1c(C(=O)N/N=C(/C)c2ccccc2)nnn1-c1nonc1N", "Potency": "inconclusive: 6.51 µM [activator, single point]"},
      {"smiles": "O=C(COc1ccccc1[N+](=O)[O-])Nc1cc(Cl)ccc1C(=O)O", "Potency": "inactive"},
      {"smiles": "CCOc1ccc(Nc2cc(C)c3ccccc3n2)cc1", "Potency": "inconclusive: 18.4 µM [activator, partial curve, poor fit]"},
      {"smiles": "c1ccc(-c2noc(-c3cccnc3)n2)cc1", "Potency": "inactive"},
      {"smiles": "CC1CCCN(C(=O)COC(=O)c2cc(Br)ccc2O)C1", "note": "(stereo not given)", "Potency": "inactive"},
      {"smiles": "Cc1ccccc1C(=O)O/N=C(\\N)c1ccccc1", "Potency": "inconclusive: 18.4 µM [activator, partial curve]"},
      {"smiles": "O=C(O)c1ccccc1C(=O)NCCc1ccc(Cl)cc1", "Potency": "inactive"},
      {"smiles": "Cc1cc(C)c2c(=O)cc(C(=O)NCc3ccccc3)oc2c1", "Potency": "inactive"},
      {"smiles": "Cc1ccc(S(=O)(=O)N2CCOCC2)cc1NC(=O)COC(=O)CNC(=O)c1ccc(Oc2ccccc2)cc1", "Potency": "inconclusive: 6.51 µM [activator, single point]"},
      {"smiles": "O=C(COC(=O)C1CCC1)Nc1ccc(OC(F)F)cc1", "Potency": "inconclusive: 35.5 µM [activator, single point]"},
      {"smiles": "COCc1cccc(C2=CC(=O)C[C@H](c3ccc(OC)cc3)C2)c1", "Potency": "inconclusive: 18.4 µM [activator, partial curve, poor fit]"},
      {"smiles": "COc1ccc(/C=C2\\SC(=O)N(CCNC(=O)C3=COCCO3)C2=O)cc1", "Potency": "active: 1.84 µM"},
      {"smiles": "O=C(CN1C(=O)CCC1=O)NNc1ccc2ccccc2c1", "Potency": "inconclusive: 5.17 µM [activator, partial curve]"},
      {"smiles": "O=C(C[n+]1ccc(C(=O)N/N=C/c2ccc(O)cc2)cc1)c1ccccc1", "Potency": "inconclusive: 32.6 µM [activator, partial curve, poor fit]"},
      {"smiles": "COc1ccc(CN2CCN(C(=O)c3cccs3)CC2)c(OC)c1OC", "Potency": "inactive"},
      {"smiles": "COC(=O)c1cc(OC)c(OC)c(OC)c1N", "Potency": "inconclusive: 29.1 µM [activator, single point]"},
      {"smiles": "Cc1cc(C)n2nc(/C(C#N)=C/c3ccccn3)c(C#N)c2n1", "Potency": "active: 6.51 µM"},
      {"smiles": "CCc1cccc(NC(=S)Nc2cccc3ccccc23)c1", "Potency": "inactive"},
      {"smiles": "COC(=O)c1ccc(COc2ccccc2/C=C(\\C#N)C(=O)NC(C)C)cc1", "Potency": "inconclusive: 18.4 µM [activator, single point]"},
      {"smiles": "N#C/C(=C\\c1cccnc1)C(=O)Nc1ccc(O)cc1F", "Potency": "inactive"},
      {"smiles": "O=C(NCC1CCCO1)c1sc(=S)n2c1[nH]c(=O)c1ccc(C(=O)N3CCCCC3)cc12", "note": "(stereo not given)", "Potency": "inconclusive: 18.4 µM [activator, partial curve, poor fit]"},
      {"smiles": "CN(C)c1nc(Cl)nc(N(C#N)CCOc2ccccc2)n1", "Potency": "inconclusive: 29.1 µM [activator, single point]"},
      {"smiles": "COc1cc2oc(=O)cc(-c3ccc(-c4ccc(C(F)(F)F)cc4)cc3)c2c(OC)c1OC", "Potency": "inconclusive: 29.1 µM [activator, single point]"},
      {"smiles": "CCn1c2ccccc2c2cc(/C=N/NC(=O)c3cc(O)cc(O)c3)ccc21", "Potency": "inconclusive: 16.4 µM [activator, single point]"},
      {"smiles": "Cc1ccc(C)c(NC(=O)C2C3C=CC(O3)C2C(=O)O)c1", "note": "(stereo not given)", "Potency": "inconclusive: 5.17 µM [activator, single point]"},
      {"smiles": "CC(C)[C@H](NC(=O)c1ccccc1F)C(=O)NC1CCCCCCC1", "Potency": "active: 18.4 µM"},
      {"smiles": "CCOc1ccc2nc(SC3CC(=O)N(c4ccc(C)cc4)C3=O)sc2c1", "note": "(stereo not given)", "Potency": "inconclusive: 29.1 µM [activator, single point]"},
      {"smiles": "Oc1[nH]c2ccccc2c1N=Nc1ccccc1Cl", "Potency": "inactive"},
      {"smiles": "CCN(c1nc(N)c(C(=O)N=C(N)N)nc1Cl)C(C)C", "Potency": "inconclusive: 0.0731 µM [activator, full curve, poor fit]"},
      {"smiles": "CCOc1cc(/C=C2\\N=C(C)OC2=O)cc(Br)c1OCC(=O)OC", "Potency": "active: 9.2 µM"},
      {"smiles": "Clc1nc(CN2CCCCC2)nc2sc3c(c12)CCCC3", "Potency": "inconclusive: 29.1 µM [activator, single point]"},
      {"smiles": "Nc1c(C(=O)N/N=C/c2cccnc2)oc2nc(-c3ccco3)cc(-c3ccco3)c12", "Potency": "inconclusive: 13 µM [activator, partial curve, poor fit]"},
      {"smiles": "Cc1cc(C(F)F)n2nc(C(=O)Nc3cccc(S(=O)(=O)N4CCOCC4)c3)nc2n1", "Potency": "inactive"},
      {"smiles": "N#CC1(c2ccccc2)CCC(NCCc2ccccc2)CC1", "note": "(stereo not given)", "Potency": "inconclusive: 18.4 µM [activator, partial curve]"},
      {"smiles": "COc1ccc2c(c1OC)C(=O)N1C2SC[C@H]1C(=O)NC1CCCCC1", "note": "(stereo not given in full)", "Potency": "inconclusive: 6.51 µM [activator, single point]"},
      {"smiles": "Cc1ccc(C(=O)Nc2cccc(Oc3ccccc3)c2)o1", "Potency": "inconclusive: 6.51 µM [activator, partial curve]"},
      {"smiles": "O=C(Cc1cccs1)Nc1ccccc1-c1nc2ccccc2[nH]1", "Potency": "active: 13 µM"},
      {"smiles": "CC1Cc2ccccc2N1c1nc(C2CC2)nc2c1nnn2Cc1ccccc1", "note": "(stereo not given)", "Potency": "inconclusive: 16.4 µM [activator, single point]"},
      {"smiles": "C=CCN(C(=O)c1cccc(S(=O)(=O)N2CCN(C)CC2)c1)c1nc(-c2ccccc2)cs1", "Potency": "inconclusive: 23.1 µM [activator, single point]"}
    ]}
  ]
}
